Experimental data published in PMC4336329 (PLoS ONE, 2015).
The whole screen tested about 310,000 compounds, of which about 14,000 (4.5%) showed an effect of 50% or more. Effects have a minus sign here. This is one part of the list.

Target: human ether-à-go-go-related gene (hERG) potassium channel (human, UniProt Q12809)
Test: primary screen, population patch clamp on CHO cells stably expressing hERG
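Also: peak tail current of the secondary pulse compared with the same well before compound.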

human ether-à-go-go-related gene (hERG) potassium channel, sequence (Q12809 whole entry, looked up): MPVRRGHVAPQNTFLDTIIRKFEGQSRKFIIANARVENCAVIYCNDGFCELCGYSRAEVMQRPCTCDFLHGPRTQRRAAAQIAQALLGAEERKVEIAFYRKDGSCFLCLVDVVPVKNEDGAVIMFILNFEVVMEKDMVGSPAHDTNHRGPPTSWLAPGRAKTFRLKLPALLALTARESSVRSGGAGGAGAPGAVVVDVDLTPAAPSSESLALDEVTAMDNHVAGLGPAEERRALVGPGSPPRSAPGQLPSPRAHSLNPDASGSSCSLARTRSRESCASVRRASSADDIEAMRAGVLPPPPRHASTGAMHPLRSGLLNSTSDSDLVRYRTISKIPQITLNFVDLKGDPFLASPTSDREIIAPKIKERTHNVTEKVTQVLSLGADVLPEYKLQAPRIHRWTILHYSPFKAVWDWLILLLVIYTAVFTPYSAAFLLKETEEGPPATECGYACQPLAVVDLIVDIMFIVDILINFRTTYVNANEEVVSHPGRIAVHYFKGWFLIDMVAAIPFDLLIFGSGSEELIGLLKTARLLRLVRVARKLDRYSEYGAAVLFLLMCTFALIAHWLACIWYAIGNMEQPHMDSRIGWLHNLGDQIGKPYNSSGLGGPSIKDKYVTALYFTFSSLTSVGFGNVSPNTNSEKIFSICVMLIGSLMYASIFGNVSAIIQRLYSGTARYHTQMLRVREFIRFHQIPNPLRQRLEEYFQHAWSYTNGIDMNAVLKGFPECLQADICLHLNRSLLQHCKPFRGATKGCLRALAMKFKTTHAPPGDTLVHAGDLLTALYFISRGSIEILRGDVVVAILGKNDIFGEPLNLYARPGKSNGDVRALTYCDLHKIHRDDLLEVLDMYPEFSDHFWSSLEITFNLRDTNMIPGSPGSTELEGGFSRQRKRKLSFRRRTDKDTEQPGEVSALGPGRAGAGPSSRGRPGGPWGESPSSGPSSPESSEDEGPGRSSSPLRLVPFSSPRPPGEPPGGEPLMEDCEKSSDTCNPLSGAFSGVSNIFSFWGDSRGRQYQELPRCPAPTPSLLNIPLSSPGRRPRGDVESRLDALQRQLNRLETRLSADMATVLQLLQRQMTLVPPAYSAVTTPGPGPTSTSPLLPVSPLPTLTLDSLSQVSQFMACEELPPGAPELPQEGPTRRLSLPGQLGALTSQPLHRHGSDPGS

Compound	hERG current change (%, negative = inhibition) at 10uM [%]
CCOC(=O)C1=C(C)NC(=O)CC1c1cc2c(cc1Br)OCO2 (stereo not shown)	5.83
S=c1[nH]nc(COc2ccccc2)n1-c1ccccc1	15
COc1ccc(N(C)S(=O)(=O)c2cccc(C(=O)Nc3cc(OC)ccc3OC)c2)cc1	13.5
CC1(C)Cc2ccccc2-c2nnc(-c3ccc(O)cc3)n21	23.1
O=C(CCS(=O)(=O)c1ccccc1)N1CCN(c2ccc(F)cc2)CC1	-35.9
COc1ccc(Nc2oc(COc3ccc(OC)cc3)nc2C#N)cc1	7.69
O=C(N/N=C/c1coc2ccccc2c1=O)c1cc(Br)ccc1O	26.9
COc1cccc(/C=N/NC(=O)c2ccc([N+](=O)[O-])cc2Cl)c1O	6.52
COc1ccc(O)c(C(=O)c2cnc3onc(C)c3c2)c1	2.99
Cc1nnc(SCc2cn3ccsc3n2)n(N)c1=O	9.36
CC1CC(=O)Nc2ccccc2N1C(=O)Nc1ccccc1 (stereo not shown)	25.7
Cc1[nH]n(-c2ccccc2)c(=O)c1N=O	16.9
O=C(NC1CC2CCCC(C1)N2Cc1ccccc1)C1CCCCC1 (stereo not shown)	-25.2
Cc1[nH]nc2c1C(c1c[nH]c3ccccc13)C(C#N)=C(N)O2 (stereo not shown)	19.7
CCCCOc1ncnc2c1[nH]c1ccc(F)cc12	10.2
O=C(NCCCn1ccnc1)c1cc(C(=O)C2CCCCC2)c[nH]1	-4.88
Cc1nnc(NC(=O)C2CCCN2C(=O)Nc2ccccc2)s1 (stereo not shown)	7.32
COc1ccc(NC(=O)c2cc(C(=O)Nc3ccc(OC)cc3OC)cc([N+](=O)[O-])c2)c(OC)c1	18.1
CN1C(=O)C(=Cc2ccc(OCCN(C)c3ccccn3)cc2)C(=O)N(C)C1=O	-18.5
CCOc1ccc(NC(=O)N2CCCC2C(=O)NCC2CCCO2)cc1 (stereo not shown)	18.5
COc1ccc(-n2c(SCC(=O)NCc3ccco3)nnc2-c2c[nH]c3ccccc23)cc1	-10.9
COc1ccc(NC(=O)CN(C)C(=O)/C=C/c2ccc(OCc3ccccc3)cc2)cc1	12.6
O=C1c2ccccc2C(=O)c2c1cccc2N1CCN(CCO)CC1	-69.7

Compound	hERG current change (%, negative = inhibition) at 10uM [%]
CN1CCN(S(=O)(=O)c2cccc(C(=O)N(C)Cc3cccs3)c2)CC1	-7.83
COc1ccc(NC(=O)CCS(=O)(=O)c2cccc3nonc23)c(OC)c1	6.33
COc1ccc(N2CCN(C(=O)CN(C)S(=O)(=O)c3ccc4c(c3)c(=O)n(C)c(=O)n4C)CC2)cc1	-17.7
O=c1[nH]c(=S)[nH]c2scc(-c3ccc(Br)cc3)c12	16.3
CCCSc1nnc(CN2CCOCC2)n1C	13.3
CCCCNC(=O)CCn1c(=S)[nH]c2cc3c(cc2c1=O)OCO3	-6.45
COc1ccccc1C1(CC(=O)N2CCOCC2)CCOC(C(C)C)C1 (stereo not shown)	0.834
CCOC(=O)C1(Cc2ccccc2Cl)CCN(C(=O)CCn2ccnc2C)CC1	-52.6
CCN(CC)S(=O)(=O)c1ccc(-c2nnc(SCC(C)=O)o2)cc1	-8.48
O=C(COc1cccc2cccnc12)N1CCc2ccccc2C1	-11.9
COc1ccc(-c2cc(C(=O)Nc3cc(Cl)ccc3O)no2)cc1	21
CC1(C)CC(=O)C2=C(C1)NC(Nc1nc3ccccc3o1)=NC21CCCC1	-5.69
CCC(C)NC(=O)Nc1ccc(F)c(Cl)c1 (stereo not shown)	16.9
N#Cc1c(SCC(=O)Nc2cccc(F)c2)sc2c(O)cc(=O)[nH]c12	7.53
CN1CCN(C(=O)CNc2ccc(C(F)(F)F)cc2[N+](=O)[O-])CC1	-19.5
COC(=O)C(C)Sc1snnc1-c1ccccc1 (stereo not shown)	3.38
CCOC(=O)CN(C(=O)Cn1nnc2ccccc21)C(C(=O)NCCOC)c1ccccc1 (stereo not shown)	-3.03
Cc1ccc(S(=O)(=O)N2CCN(C(=O)COC(=O)/C=C/c3ccc(F)cc3)CC2)c(C)c1	13.9
Cc1nc2nc(SCC(=O)O)nn2c(C)c1Cc1c(F)cccc1Cl	31.5
COc1cc2c(C(=O)Nc3ccccc3F)cn(C)c(=O)c2cc1OC	14.5
O=C(Cn1cnc2ccccc21)Nc1ccc(F)c(F)c1	8.41
Cc1ccc(C)c(NC(=S)NCCc2ccc(F)cc2)c1	-0.384
Cc1ccc(SCc2c(-c3ccccc3)nn(C)c2Cl)cc1	10.5

Compound	hERG current change (%, negative = inhibition) at 10uM [%]
CCC(=O)Nc1ccc(C(=O)OCc2ccccc2Cl)cc1	0.808
Cc1cc(C)n(CCC(=O)Nc2ccc3c(c2)OCCO3)n1	17.1
O=S(=O)(c1ccc(S(=O)(=O)N2CCC3(CC2)OCCO3)cc1)N1CCCC1	-3.93
O=C(/C=C/c1ccc(S(=O)(=O)N2CCOCC2)cc1)NCCCn1ccnc1	35.2
O=[N+]([O-])c1ccc(NNS(=O)(=O)c2cc(Cl)ccc2Cl)nc1	-68.8
C=CCOc1c(Br)cc(/C=N/O)cc1OCC	-8.46
Br.CC(Oc1ccccc1)C(=O)NN1Cc2ccccc2C1=N (stereo not shown)	22.1
Cc1ccccc1OCCNc1cc(N2CCCCC2)ccc1[N+](=O)[O-]	-17.2
O=C(CC1C(=O)NCCN1C(=O)Nc1ccccc1)Nc1ccc2c(c1)OCCO2 (stereo not shown)	-3.25
Cc1c(N=Cc2cc3c(cc2Cl)OCO3)c(=O)n(-c2ccccc2)n1C	0.111
CC(C)N(c1nnc(N)s1)C(C)C	-6.08
O=C(c1cc(C2CC2)on1)N1CCN(c2ccc(F)cc2)CC1	-43.4
O=C(CSC1=NCCS1)N1CCc2ccccc21	4.37
CCOC(=O)C(=O)NCC(c1ccco1)S(=O)(=O)c1cccs1 (stereo not shown)	-5.13
CC(=O)c1cccc(S(=O)(=O)Nc2cc(C(F)(F)F)ccc2N2CCOCC2)c1	1.15
Clc1ccc(Cn2cccc2C2=NCCO2)cc1	4.69
O=C(Nc1ccc(Cl)cn1)c1cccc2ccccc12	6.69
COc1ccccc1N1CCN(C(CNS(C)(=O)=O)c2cccnc2)CC1 (stereo not shown)	23.2
Cc1[nH]c(=O)c(C#N)c2c1COC(C)(C)C2	14.9
Cc1ccc(CN2CCN(Cc3c(C)nn(-c4ccc(F)cc4)c3C)CC2CCO)o1 (stereo not shown)	-34.6
CCOc1ccc(S(=O)(=O)N(C)c2ccc(OCC(=O)NCc3ccco3)cc2)cc1	-26.3
O=C1CCN(C(=O)CCCn2c(=O)oc3ccccc32)CC1	17
O=C(CSc1ncccn1)N/N=C/c1ccccc1[N+](=O)[O-]	11.3

Compound	hERG current change (%, negative = inhibition) at 10uM [%]
Cc1ccc(SCc2cc(-c3ccc(Cl)cc3)on2)cc1	14.6
Cc1noc(NS(=O)(=O)c2ccc(N/C=C\C(=O)c3ccc(Br)cc3)cc2)c1C	-9.95
COc1ccc(CCc2nc(-c3cccs3)no2)cc1	-4.11
CC(C)(C)c1cc(CCC(=O)Nc2ccncc2)cc(C(C)(C)C)c1O	-16.6
O=S(=O)(c1cccs1)N1CCC2(CC1)OCCN2S(=O)(=O)c1ccccc1	-10.2
COc1ccc(C(=O)c2ccccc2)cc1Br	-11.8
O=[N+]([O-])c1ccc2c(c1)ncn2-c1ccccc1	-21.6
O=C(COC(=O)c1ccccn1)Nc1nccs1	10.3
O=C(C[n+]1ccc(Cc2ccccc2)cc1)Nc1ccccc1.[Cl-]	17.1
O=C(CN1CCN(C(=O)c2cccs2)CC1)Nc1ccc(Br)cc1	-71.8
CCCCCC(=O)Nc1nc(C)c(-c2csc(Nc3cc(OC)ccc3OC)n2)s1	6.78
O=C1NC2=C(C(=O)CCC2)C(c2ccccc2Cl)N1 (stereo not shown)	26.2
COCCn1ccc2c(OCC(=O)Nc3ccccc3OC)cccc2c1=O	-17.4
CCC(=O)N(CCc1ccccc1)Cc1cc2cc(C)ccc2[nH]c1=O	1.44
CCC(C)NC(=O)CN1C(=O)NC2(CCc3ccccc3C2)C1=O (stereo not shown)	7.05
Cc1ccc(CN2CCN(Cc3cn(C)nc3-c3ccccc3)CC2CCO)o1 (stereo not shown)	1.84
CC(C)(C)c1cc(-c2n[nH]c(=S)n2-c2ccccc2F)n[nH]1	18.3
Oc1ccccc1-[n+]1c(-c2ccccc2)cc(-c2ccccc2)cc1-c1ccccc1.[O-][Cl+3]([O-])([O-])[O-]	-71.2
O=C(C[n+]1ccccc1)N/N=C/c1cccc(Cl)c1Cl.[Cl-]	13.4
NC(Cc1c[nH]c2ccccc12)C(=O)NCc1ccco1 (stereo not shown)	13.5
CC(=O)NC1(C(Cl)(Cl)Cl)Oc2ccccc2O1	18.7
NC(=S)Nc1cccc2cc3ccccc3cc12	2.73
